{"source": "PubChem BioAssay AID1345083", "about": "(National Center for Advancing Translational Sciences (NCATS), 2018)", "note": "Screen size: about 94,000 compounds; about 6,200 (6.6%) were called active. The shares of active, inactive and inconclusive entries below differ from those in the screen. The call rests on the fitted dose curve; in most records, active means well fitted inhibition curve with a large enough effect; inconclusive means small, poorly fitted or top-dose-only effect; inactive means flat fitted curve, though single readings scatter. Potencies beside an inconclusive call are fits to weak or partial responses and may not hold up. Potency means the concentration at half of the fitted maximal effect; tags describe the fitted curve by direction and shape.", "data": [{"test": "Cytotoxic Profiling in HEK 293 Cell Line of Diverse Libraries Using Quantitative High-Throughput Screening; further: nearly all actives have a fitted effect of over 60% in size", "details": "HEK 293 viability, ATP luminescence (CellTiter-Glo), 48-72 h; series mostly up to 115 µM", "in_short": "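250 HEK 293 cells/well; compound by pintool; incubated 48 or 72 hr at 37 degree Celsius; CellTiter-Glo added, 10 min RT, luminescence imaged.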", "values": [{"molecule": "O=C(c1ccccc1)N1C[C@@H](F)[C@@H](OCc2nc3ccc(C(F)(F)F)cc3[nH]2)C1", "Potency": "inconclusive: 100 µM [inhibitor, partial curve, poor fit]"}, {"molecule": "Cc1ccc(C(=O)N2CCC(N3CCOCC3=O)CC2)cc1", "Potency": "inactive"}, {"molecule": "Cc1cnc(-c2ccccc2)n1CCC1CCN(C(=O)C2(c3ccccc3)CC2)CC1", "Potency": "active: 35.5 µM"}, {"molecule": "Cc1cc(-c2cnc3n[nH]c(-c4sccc4C)c3n2)ccn1", "Potency": "inconclusive: 100 µM [inhibitor, partial curve]"}, {"molecule": "COc1ccc(-n2cc(CN3CCCC(O)C3)c(-c3cccc(F)c3)n2)cc1", "note": "(stereo not given)", "Potency": "inconclusive: 56.2 µM [inhibitor, partial curve, poor fit]"}, {"molecule": "CN1C(=O)CO[C@H](c2ccc(NC(=O)c3cccnc3)cc2)[C@H]1CO", "Potency": "inactive"}, {"molecule": "Cc1ccc(N2CCC(NC(=O)Cc3ccccc3Cl)C2=O)cc1", "note": "(stereo not given)", "Potency": "inactive"}, {"molecule": "COCc1noc(-c2ccc(NC[C@H]3CCc4ccccc4O3)nc2)n1", "Potency": "inconclusive: 50.1 µM [inhibitor, partial curve, poor fit]"}, {"molecule": "CCNc1nccc(N2CCC(CC(=O)NCC(C)C)CC2)n1", "Potency": "inconclusive: 50.1 µM [inhibitor, partial curve, poor fit]"}, {"molecule": "O=C1CC(c2ccccc2)N(C(=O)CNC(=O)c2ccsc2)CCCCCN1", "note": "(stereo not given)", "Potency": "inactive"}, {"molecule": "O=C(NC1CC1)C1COC2(CCN(C(=O)c3cccc(Cl)c3)CC2)N1C(=O)c1cccc(F)c1", "note": "(stereo not given)", "Potency": "inactive"}, {"molecule": "CC(=O)c1[nH]c(C)c(C(=O)N2CCC3(CC2)[C@H](O)C[C@@H]3OCCO)c1C", "Potency": "inactive"}, {"molecule": "c1ccc(N2CC3(CN(CC4CC4)CC3CNc3cccnc3)C2)cc1", "note": "(stereo not given)", "Potency": "inconclusive: 70.8 µM [inhibitor, partial curve]"}, {"molecule": "Cc1cccc(-c2nc3ccc(C(=O)NC4CCCCCC4)cc3o2)n1", "Potency": "active: 79.4 µM"}, {"molecule": "O=C(c1ccc(CN2CCCCC2)cc1)N1CCOC2(CNCCOC2)C1", "note": "(stereo not given)", "Potency": "inactive"}, {"molecule": "Cc1ccccc1S(=O)(=O)N1CCCCC1c1nc(CCOCC2CCOCC2)no1", "note": "(stereo not given)", "Potency": "inconclusive: 50.1 µM [inhibitor, partial curve, poor fit]"}, {"molecule": "Cc1ncsc1CN1C[C@@H](NC(=O)c2cccnc2)C[C@H]1CO", "Potency": "inconclusive: 79.4 µM [inhibitor, partial curve, poor fit]"}, {"molecule": "O=C(O)c1cnc(N2CCCCC2)nc1-c1ccccc1", "Potency": "inactive"}, {"molecule": "COc1cccc(N2C(=O)OCC23CCN(Cc2c[nH]c4ccccc24)C3)c1", "note": "(stereo not given)", "Potency": "inconclusive: 31.6 µM [inhibitor, full curve, poor fit]"}, {"molecule": "COc1cccc(CNC(=O)C2Cn3cccc3C(=O)N2C)c1", "note": "(stereo not given)", "Potency": "inactive"}]}]}
